The campaign covered roughly 220,000 compounds. About 16,000 (7.3%) were called active. The inconclusive results got no clear call from the source; some entries with a clear call stand among them for comparison. The call rests on the fitted dose curve; in most records, active means well fitted inhibition curve with a large enough effect (not every such curve was filed as active); inconclusive means small, poorly fitted or top-dose-only effect, or another doubt; inactive means no such curve, though single readings can be large or run the other way. Potencies of inconclusive entries are left out as doubtful fits.
target: Aldehyde dehydrogenase 1A1 (Homo sapiens) (UniProt P00352); assay: qHTS Assay for Inhibitors of Aldehyde Dehydrogenase 1 (ALDH1A1); settings: Purified ALDH1A1, NADH fluorescence, propionaldehyde substrate; series mostly up to 75.3 µM;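 on activity, negative = inhibition: plate controls were no enzyme wells and a reference inhibitor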
Potency means the concentration at half of the fitted maximal effect; tags describe the fitted curve by direction and shape.

UniProt P00352, sequence (P00352 whole entry, looked up): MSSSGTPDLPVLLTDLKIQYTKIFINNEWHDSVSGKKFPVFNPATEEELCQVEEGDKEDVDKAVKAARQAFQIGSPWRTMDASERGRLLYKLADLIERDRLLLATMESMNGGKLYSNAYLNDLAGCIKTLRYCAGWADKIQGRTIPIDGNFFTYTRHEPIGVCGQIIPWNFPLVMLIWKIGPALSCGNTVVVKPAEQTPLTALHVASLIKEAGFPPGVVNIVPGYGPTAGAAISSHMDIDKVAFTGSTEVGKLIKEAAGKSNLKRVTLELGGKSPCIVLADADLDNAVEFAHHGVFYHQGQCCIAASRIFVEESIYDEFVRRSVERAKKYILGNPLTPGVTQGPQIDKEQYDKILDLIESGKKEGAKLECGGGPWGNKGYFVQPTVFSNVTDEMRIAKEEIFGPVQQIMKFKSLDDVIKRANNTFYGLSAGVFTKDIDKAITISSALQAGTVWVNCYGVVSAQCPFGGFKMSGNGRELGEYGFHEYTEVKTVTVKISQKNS

Compound | Potency | activity, negative = inhibition
O=C(O)C1C2C=CC(CC2)C1C(=O)O (stereo not given) | inactive | –
CCN(CC)S(=O)(=O)c1ccc(N=NC2=C(O)CC(C)(C)CC2=O)cc1 | active: 2.51 µM | –
CN1CCCN(C(=O)Cc2c(Cl)cccc2Cl)c2nc3ccccc3nc21 | inconclusive [inhibitor, single point] | –
C=CCc1cccc(C2C(C)CCC3C(=O)N4C(CCC(C)C4c4cccc(CC=C)c4)C(=O)N32)c1 (stereo not given) | active: 6.31 µM | –
CCOc1ccc(-n2c(SC)nc3c(c2=O)SCC3)cc1 | inconclusive [inhibitor, partial curve] | –
O=C(CN1CCOCC1)NNc1nc(-c2ccccc2)c2cc(Br)ccc2n1 | inconclusive [inhibitor, partial curve] | –
O=C(CN1CCN(S(=O)(=O)c2ccccc2[N+](=O)[O-])CC1)NC(=O)NCc1ccco1 | inactive | –
O=c1ccc2cc3c4c(c2o1)CCCN4CCC3 | inconclusive [inhibitor, single point] | –
N#C/C(=C\c1cn(Cc2ccccc2)c2ccccc12)C(=O)NCc1ccco1 | inactive | –
CCN(CC)S(=O)(=O)c1ccc(-c2nnc(SCC(=O)Nc3ccc4c(c3)OCO4)o2)cc1 | inconclusive [inhibitor, partial curve] | –
O=c1cnn([C@@H]2O[C@H](CO)[C@@H](O)[C@H]2O)c(=O)[nH]1 | inactive | –
O=C(O)CSCc1cn2cc(Cl)ccc2n1 | inconclusive [inhibitor, single point] | –
CC1CCCC(C)N1c1nnc(NC(=O)c2cc(-c3ccc(Br)cc3)on2)s1 (stereo not given) | inconclusive [inhibitor, partial curve] | –
NCCC[C@@H](CC(=O)N[C@@H]1CCCC[C@H]1C(=O)N[C@H](CC(=O)N[C@@H](CCC(=O)O)CC(=O)O)Cc1c[nH]c2ccccc12)NC(=O)C[C@H](Cc1c[nH]c2ccccc12)NC(=O)[C@@H]1CCCC[C@H]1N | inconclusive [inhibitor, single point] | –
COc1cccc(-c2ccc(C#N)c(SCC(=O)NCc3ccco3)n2)c1 | inconclusive [inhibitor, single point] | –
COC(=O)CCCC[C@H]1SC[C@H]2NC(=O)N[C@]21O | inactive | –
CCCCCn1c(N2CCN(c3cccc(Cl)c3)CC2)nc2c1c(=O)[nH]c(=O)n2C | inactive | –
S=C(Nc1ccc(Nc2ccccc2)cc1)Nc1ccccn1 | active: 15.8 µM | –
Cc1nc(CNS(=O)(=O)c2cccc(F)c2)cs1 | inconclusive [inhibitor, single point] | –
CCN=c1scc(C)n1/N=C/c1cc(Br)c(O)c(OC)c1 | inconclusive [inhibitor, single point] | –
C=CCn1c(SCc2nc3ccccc3[nH]2)nnc1-c1ccccn1 | active: 6.31 µM | –
O=C(CC12CC3CC(CC(C3)C1)C2)N/N=C\c1ccc[nH]1 | inactive | –
COc1cc(/C=N/n2c(C)n[nH]c2=S)ccc1OCc1ccc(F)cc1 | inconclusive [inhibitor, single point] | –
Cc1c(NC(=O)/C=C/c2ccc(S(=O)(=O)N3CCOCC3)cc2)c(=O)n(-c2ccccc2)n1C | inactive | –

Compound | Potency | activity, negative = inhibition
O=c1c2ccccc2nc2c3ccccc3cnn12 | inconclusive [inhibitor, single point] | –
COC(=O)CSc1nn(-c2ccc(F)cc2)c(=S)s1 | inactive | –
Cc1ccc2[nH]c(=O)c(C(c3nnnn3CCc3ccccc3)N3CCOCC3)cc2c1 (stereo not given) | inconclusive [inhibitor, single point] | –
Cc1ccccc1CC1(CO)CCCN(C(=O)CCC(=O)c2ccccc2)C1 (stereo not given) | inconclusive [inhibitor, single point] | –
CCc1nnc(NC(=O)COc2ccc(N(C)S(=O)(=O)c3ccc(C)cc3)cc2)s1 | inconclusive [inhibitor, single point] | –
COc1ccc(/C=N/NC(C)(C)C)c(OC)c1 | active: 20 µM | –
O=C(O)c1ccc(CSc2nnc(-c3ccco3)n2-c2ccccc2)cc1 | inconclusive [inhibitor, single point] | –
CCCCCCCN(C(=O)CCl)c1cccc(C)c1 | active: 0.224 µM | –
CS(=O)(=O)N(CC(=O)NCCSC1CCCCC1)c1ccc2c(c1)OCO2 | inconclusive [inhibitor, partial curve] | –
Cc1c(O)ccoc1=O | inactive | –
O=C(C/C=N\OCc1ccc([N+](=O)[O-])cc1)Nc1ccc(Cl)cc1 | inconclusive [inhibitor, partial curve] | –
COc1ccc(CNC(=O)CC2C(=O)NCCN2CC(C)(C)C)c(OC)c1 (stereo not given) | inconclusive [inhibitor, single point] | –
COc1cccc(/C=N/NC(=O)c2nc(-c3ccccc3)cc(-c3ccccc3)n2)c1 | inconclusive [inhibitor, partial curve] | –
Cc1cc(Br)c2c(c1)/C(=C/C(=O)c1cccs1)C(=O)N2 | inconclusive [inhibitor, full curve] | –
COc1ccc(C)cc1NC(=O)c1ccc(-c2ccc(C(C)=O)cc2)o1 | inconclusive [inhibitor, single point] | –
CN(C)c1ccc(NC(=O)CSc2n[nH]c(-c3ccco3)n2)cc1 | inconclusive [inhibitor, single point] | –
COc1ccc(S(=O)(=O)Nc2ccc3oc(C)c(C(C)=O)c3c2)cc1 | inconclusive [inhibitor, partial curve] | –
Cc1ccc(S(=O)(=O)CCSc2cccc(C(=O)Nc3ccccc3C(=O)O)c2)cc1 | inconclusive [inhibitor, single point] | –
c1ccc(C2Oc3ccccc3C3CC(c4cccs4)=NN32)cc1 (stereo not given) | active: 12.6 µM | –
CCC(C)(C)NC(=O)C(c1ccc(C)cc1)N(Cc1ccco1)C(=O)CCC(=O)Nc1nccs1 (stereo not given) | inactive | –
CC(=O)C1=C(O)C(=O)N(CCC(=O)O)C1c1ccccc1[N+](=O)[O-] (stereo not given) | inconclusive [inhibitor, single point] | –
CCn1c(COc2ccc(C)cc2)nnc1SCC(=O)Nc1ccc2c(c1)OCCO2 | inconclusive [inhibitor, partial curve] | –
C=CC1=C2C=C(C3CC3)N(C3CCCCC3)C=C2C(=O)C(C)(OC(=O)c2ccco2)C1=O (stereo not given) | – | inactive: 0.881% [at 13.5 µM]
O=C(CCCn1c(=O)c2sccc2n(Cc2cc(=O)n3ccccc3n2)c1=O)NCc1ccco1 | inconclusive [inhibitor, single point] | –

Compound | Potency | activity, negative = inhibition
CC1=Nc2cccc([N+](=O)[O-])c2NC(=O)C1 | inactive | –
COc1cc(S(=O)(=O)N2CCCCCC2)c(OC)cc1Br | inactive | –
O=c1[nH]nc(Cc2ccc(Cl)cc2)c2ccccc12 | inactive | –
CCC(=O)Nc1cccc(NC(=O)CSc2nnnn2Cc2ccccc2)c1 | active: 20 µM | –
COc1cccc(C(c2nnnn2Cc2ccco2)N2CCN(Cc3ccccc3)CC2)c1OC (stereo not given) | inconclusive [inhibitor, partial curve] | –
COCCNC(=S)NNc1cccc(C(=O)O)c1 | inconclusive [inhibitor, single point] | –
CN(Cc1ccccc1)C(=O)c1nc2ccccn2c1CNCCn1cccn1 | inconclusive [inhibitor, partial curve] | –
O=[N+]([O-])c1ccccc1-c1cc(-c2ccccc2O)n[nH]1 | inconclusive [inhibitor, single point] | –
CCOC(=O)NN1C(=O)c2ccccc2NC1c1ccc(OC)cc1 (stereo not given) | inconclusive [inhibitor, partial curve] | –
Cc1nn(-c2ccccc2)c(N)c1C1(O)C(=O)Nc2ccc([N+](=O)[O-])cc21 (stereo not given) | inconclusive [inhibitor, single point] | –
CCOc1ccc(Nc2nc(NCCN3CCOCC3)nc(OC)n2)cc1 | inactive | –
O=C(c1cccs1)N(Cc1nc2sc3c(c2c(=O)[nH]1)CCCC3)C1CCCC1 | inconclusive [inhibitor, partial curve] | –
Cc1nnc(NC(=O)c2ccccc2Oc2ccccc2)s1 | inactive | –
Brc1ccc2nc(-c3cccs3)c(NCC3CCCO3)n2c1 (stereo not given) | active: 7.94 µM | –
CCCn1c(NC(=O)c2cccc(S(=O)(=O)N3CCCC3)c2)nc2ccccc21 | inconclusive [inhibitor, single point] | –
Cc1ccc(N(C)S(=O)(=O)c2cccc(C(=O)Oc3ccc4c(C)cc(=O)oc4c3)c2)cc1 | inconclusive [inhibitor, partial curve] | –
Cc1cc(Br)ccc1OCCN1CC(C)OC(C)C1 (stereo not given) | inconclusive [inhibitor, single point] | –
Cc1ccc(-n2ncc3c(NCc4ccccn4)ncnc32)c(C)c1 | inconclusive [inhibitor, single point] | –
COc1ccc(CCNc2c(N)n(Cc3ccccc3)c(=O)[nH]c2=O)cc1OC | inconclusive [inhibitor, single point] | –
CN(C)CCNC(=O)c1ccc(-c2nn(C)c(=O)c3ccccc23)cc1 | inactive | –
COC1CC(O[C@H]2/C(C)=C/CC3CC(C[C@]4(CCC(C)C(C5CCCCC5)O4)O3)OC(=O)[C@H]3C=C(C)/C(=N/O)C4OC/C(=C\C=C\[C@@H]2C)[C@@]43O)OC(C)C1O (stereo not given in full) | inactive | –
CCCCC(CC)COC(=O)c1ccc(N(C)C)cc1 (stereo not given) | inconclusive [inhibitor, single point] | –

From PubChem BioAssay AID1030 (National Center for Advancing Translational Sciences (NCATS), 2008)
